Kd data for 3 molecules are collected here from US20210238256A1 (LEVICEPT, published 2021).

Assay [1] has as its target T1, NGF (UniProt P01138 partial chain).
T1 construct: also called nerve growth factor; neurotrophic growth factor
In words: SPR (Biacore affinity). (In general: In SPR one partner is held on a chip, and binding of the other changes the refractive index at the surface.)

The target of a further assay is T2, BDNF (UniProt P23560 129-247).
T2 construct: also called brain-derived neurotrophic factor
T2 sequence (looked up): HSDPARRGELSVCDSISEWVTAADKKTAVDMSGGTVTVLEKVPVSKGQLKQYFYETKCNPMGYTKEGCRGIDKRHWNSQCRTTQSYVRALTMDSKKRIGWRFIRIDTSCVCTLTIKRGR
In words: SPR (Biacore affinity).

For a further assay, the target named is T3, NT-3 (UniProt P20783 139-257).
T3 construct: also called neurotrophin 3
T3 sequence (looked up): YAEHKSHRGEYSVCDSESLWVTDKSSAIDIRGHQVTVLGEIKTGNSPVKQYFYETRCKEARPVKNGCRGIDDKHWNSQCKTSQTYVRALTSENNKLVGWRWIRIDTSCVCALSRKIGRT
The assay is described as follows: SPR (Biacore affinity).

For a further assay, the target named is T4, NT-4 (UniProt P34130 81-210).
T4 construct: also called neurotrophin 4/5; NT-4/5
T4 sequence (looked up): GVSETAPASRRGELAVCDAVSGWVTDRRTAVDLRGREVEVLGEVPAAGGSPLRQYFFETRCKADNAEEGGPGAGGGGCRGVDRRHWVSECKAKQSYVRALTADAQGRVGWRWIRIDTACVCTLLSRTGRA
In words: SPR (Biacore affinity).

The target of assay [2] is T1, NGF. In words: SPR (Biacore T200), fusion protein captured on Protein A chip, NGF as analyte, single cycle kinetics, 1:1 model. On the procedure:
The single cycle kinetics method involved: [0208] injecting 0.625 nM of NGF onto the captured p75-Fc for 120 seconds at 30 μl/min [0209] this process was then repeated with an injection of NGF at 1.25 nM, followed by 2.5, 5 and 10 nM [0210] after the final concentration of NGF had been injected a 600 second dissociation phase was performed by flowing the running buffer (HBS-EP) over the chip.
Sequence 1 (SEQ ID No:1) p75-Fc was then captured onto the chip by performing a 38 second injection at a flow rate of 10 μl/in at a concentration of 10 μg/ml. This achieved the desired level of 430 RU. The single cycle kinetics procedure described above was then repeated.
The fusion protein-NGF binding data was analysed in the following manner using the Biacore T200 evaluation software v1: [0215] Data is recorded for the binding of NGF to the fusion protein on flow cell 2 (Fc=2) and for NGF flowing over the control flow cell 1 (Fc=1; protein A alone). [0216] The data from Fc=1 is then subtracted from Fc=2 to give “2-1” binding data. [0217] The 2-1 binding data for an injection of 0 nM (HBS-EP running buffer alone) is then subtracted from all the 2-1 binding data to control for any drifts in baseline throughout the experiment. [0218]

The target of assay [3] is T1, NGF. In words: SPR (Biacore), fusion protein captured on Protein A chip, NGF as analyte, single cycle kinetics, 1:1 model.
T1 sequence (P01138 122-241 limits assumed): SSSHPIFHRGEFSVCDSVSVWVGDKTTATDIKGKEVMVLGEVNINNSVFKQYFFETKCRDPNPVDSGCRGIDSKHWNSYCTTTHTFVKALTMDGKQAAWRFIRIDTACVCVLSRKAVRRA

B1: p75NTR(NBP)-Fc fusion protein Sequence 15 (SEQ ID No:15) (Fc fusion)
chain: KEACPTGLYTHSGECCKACNLGEGVAQPCGANQTVCEPCLDSVTFSDVVSATEPCKPCTECVGLQSMSAPCVEADDAVCRCAYGYYQDETTGRCEACRVCEAGSGLVFSCQDKQNTVCEECPDGTYSDEANHVDPCLPCTVCEDTERQLRECTRWADAECEEIPGRWITRSTPPEGGGG[human IgG1 Fc with changes not shown]
Turning to B1, the Kd (usually the free concentration of one partner at which half of the binding sites on the other are occupied at equilibrium, for simple one-to-one binding) in the assay with NGF [1] came to 0.498 nM; in the assay with BDNF, 0.038 nM; in the assay with NT-3, 0.015 nM; in the assay with NT-4, 0.164 nM.

B2: Sequence 1 p75NTR-Fc (SEQ ID No:1) (Fc fusion)
chain: KEACPTGLYTHSGECCKACNLGEGVAQPCGANQTVCEPCLDSVTFSDVVSATEPCKPCTECVGLQSMSAPCVEADDAVCRCAYGYYQDETTGRCEACRVCEAGSGLVFSCQDKQNTVCEECPDGTYSDEANHVDPCLPCTVCEDTERQLRECTRWADAECEEIPGRWITRSTPPEGSDSTAPSTQEPEAPPEQDLIASTVAGVVTTVMGSSQPVVTRGTTDNDIEGRM[human IgG1 Fc not shown]
notes: It describes Fc-mediated dimerisation only in general terms, and uses a fusion protein molecular weight of 102,000 in the Rmax calculation
Turning to B2, the Kd with NGF [2] is 0.4 nM.

B3: Sequence 3 p75NTR-Fc (SEQ ID No:3) (Fc fusion)
chain: KEACPTGLYTHSGECCKACNLGEGVAQPCGANQTVCEPCLDSVTFSDVVSATEPCKPCTECVGLQSMSAPCVEADDAVCRCAYGYYQDETTGRCEACRVCEAGSGLVFSCQDKQNTVCEECPDGTYSDEANHVDPCLPCTVCEDTERQLRECTRWADAECEEIPGRWITRSTPPEGSDSTAPSTQEPEAPPEQDLIASTVAGVVTTVMGGGG[human IgG1 Fc with changes not shown]
notes: also called p75-Fc (G4x1)
For B3, the Kd with BDNF is 0.048 nM; in the assay with NT-3 it was 0.014 nM; with NT-4, 0.181 nM; with NGF [3], 0.36 nM.
